Measurements as given in the supplement of paper PMC3334620.
Over roughly 33,000 sequences, “E-score (-0.5 to 0.5)” has its median near -0.011; the highest 2% begin near 0.28. Some of the results follow.

What follows are sequences tested against T1, Gcr1 (UniProt P07261) (assay: PBM E-score (8-mer binding enrichment) (E-score (-0.5 to 0.5)); higher = stronger / more preferred TF binding; most listed sequences are background and not binding sites). Conditions: protein concentration: 100 nM; construct: GST-full length.
T1 sequence: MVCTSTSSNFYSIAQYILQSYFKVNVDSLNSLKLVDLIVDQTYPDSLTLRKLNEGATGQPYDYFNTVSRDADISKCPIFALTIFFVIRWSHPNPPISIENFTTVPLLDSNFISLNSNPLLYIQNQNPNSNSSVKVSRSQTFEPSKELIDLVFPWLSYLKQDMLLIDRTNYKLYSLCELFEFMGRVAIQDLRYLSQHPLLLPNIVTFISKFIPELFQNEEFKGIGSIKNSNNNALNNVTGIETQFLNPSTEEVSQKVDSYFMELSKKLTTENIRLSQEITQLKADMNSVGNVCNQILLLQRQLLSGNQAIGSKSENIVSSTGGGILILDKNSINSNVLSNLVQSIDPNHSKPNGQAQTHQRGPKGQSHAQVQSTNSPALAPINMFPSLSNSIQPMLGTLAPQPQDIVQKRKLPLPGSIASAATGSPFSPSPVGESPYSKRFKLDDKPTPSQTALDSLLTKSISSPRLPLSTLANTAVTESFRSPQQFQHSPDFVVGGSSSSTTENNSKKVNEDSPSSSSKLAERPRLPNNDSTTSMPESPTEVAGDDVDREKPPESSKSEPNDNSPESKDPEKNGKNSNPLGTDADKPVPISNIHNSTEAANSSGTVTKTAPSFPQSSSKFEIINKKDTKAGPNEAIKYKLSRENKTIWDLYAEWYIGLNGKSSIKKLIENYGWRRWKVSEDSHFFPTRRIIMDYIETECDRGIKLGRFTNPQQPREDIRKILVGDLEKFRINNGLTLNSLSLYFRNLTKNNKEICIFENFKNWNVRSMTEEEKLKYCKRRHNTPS
How it was run: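 Masliner-normalised scans of fluorescent anti-GST signal were the basis for scoring. That signal came from GST-tagged yeast transcription factors applied at about 100-200 nM to double-stranded universal all-10-mer Agilent arrays on fresh or once-stripped slides. Each ungapped eight-base word, pooled with its reverse complement, received an E-score from the Universal PBM Analysis Suite.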

Sequence | PBM E-score
GACATGTA | -0.0841
AAATGCCT | -0.153
CATCTAAA | 0.161
GCCTAGCA | -0.0891
ACTGCAAC | 0.00696
GCCGAAGA | -0.209
GGGGCAAA | 0.0742
ATCCGGTC | 0.0498
GTCCATAA | 0.137
CCGGTCAG | -0.0578
AATATCCT | -0.0901
GCATAGGA | -0.0895
ATCTTACC | 0.0667
ATCTCCCA | 0.12
GCGCATAA | -0.229
GCGCCGCA | 0.114
ATTAGGTA | -0.111
AGCGCCCA | 0.183
GAAGTGAA | 0.224
GTCCGCTA | 0.0982
ACTAGGTG | 0.0431
AGCGTTTA | 0.0678
TGCCTAAA | 0.192
CAACGCTG | -0.0977
CCGCGGCC | 0.0546

Sequence | PBM E-score
GACGGGCC | -0.182
TAACTAAA | 0.0861
CGCTGCCG | 0.175
CAGAGTAC | 0.08
ACGTCTTA | 0.00729
CACGCATA | -0.173
AGAATCTG | 0.203
GCTAAAAA | 0.137
AGACGTGG | -0.252
ACTTTAAA | 0.0642
AGTGCTCA | -0.181
CTCTCTTA | -0.0717
CGAAGTTA | 0.0921
AAAGCGGC | 0.213
CCCCCGAC | -0.137
CCTCACCG | -0.0239
GTGTTCAA | 0.0662
GAGCCAGC | -0.0825
ACCGAGGT | -0.119
CGAATAAC | 0.0279
AATCCTGT | 0.217
AAGTCCTC | 0.0526
CGATTATA | 0.0315
AGCGGTGG | -0.0647
CAAGCTCA | -0.14

Sequence | PBM E-score
AGCATGTA | 0.0411
GCTGAGAA | -0.0462
CGTTATTC | -0.0445
GAATTCGA | 0.0254
CTTATGAC | 0.0224
TATGAGCA | -0.102
TGTTGCAA | 0.0641
ATAGAGAG | -0.263
ACTTTTCC | 0.112
GGGGACCA | 0.194
AGTGTTCC | -0.0253
CCATGCAC | -0.219
CACCGAGC | -0.00966
GGTATACC | -0.0901
AGTTAGCG | 0.0629
CCCGCGAC | -0.167
ACTAGCTG | 0.123
AACCCAAA | 0.149
CAGTGACA | -0.0594
ATATAAAT | 0.202
CAAGCCCC | -0.18
GAGCGGCA | -0.0784
GGAACGCA | 0.194
ATAACGAG | -0.149
GGACTCAA | 0.0186

Sequence | PBM E-score
GTAACAGA | 0.00518
CGTTACAA | -0.0913
CACTTAGA | 0.0664
CGCCCTAG | 0.143
CACGTGGA | 0.044
AACTGTCC | -0.122
CTCACTTA | -0.173
ATGACGCG | -0.0878
ACGAAAGA | -0.0771
ATTTATCA | 0.0721
AGGCCCGA | -0.144
CTCGTAAA | 0.059
CATGTTTC | 0.0504
TGATTGAA | 0.172
ATCCGTGA | -0.0751
ATCTAAGG | -0.16
ACCTAACG | 0.0168
GACCTCGA | -0.0276
ACTAGATC | -0.0833
ATGCGTGG | -0.0381
CCCGGCAG | -0.0696
CAAGGATC | 0.0598
AGACCGTA | 0.00692
TCGCTTAA | -0.0599
AAAGTGTA | 0.113

Sequence | PBM E-score
TTGAACAA | -0.112
GATCGTAA | -0.0978
CCGAGATC | -0.0078
CAGAACCA | 0.0465
AAAAGATG | 0.143
ATTACAGC | -0.134
ACGCATTG | -0.0938
ATTAGAAT | 0.203
AACGCGAT | -0.0214
CTGCAAAA | 0.0951
CGCCAGAG | -0.0121
CATGGGCC | -0.111
GACGTCGC | 0.104
GACAAGAA | 0.133
AAAACCTT | -0.0617
CCCAACTC | -0.0243
CAAGGTTC | 0.0262
ACCGACGA | -0.132
GTCCCGAC | -0.134
GTGCTGAA | -0.146
GGAAGTAC | -0.0615
TACCAGTA | 0.224
CTATCCTC | -0.0878
ATATCGGC | -0.0473
AGGTAGAT | 0.036

Sequence | PBM E-score
CCCTTCCG | -0.286
ATATATCC | 0.0296
ACCGCGGT | -0.332
GAAGACTC | -0.104
TATTAAAA | 0.243
GGTCGTAC | -0.13
GGGTGGAA | -0.113
CATTAGGA | 0.0896
CTCTAGAG | 0.176
ACTGTTAA | -0.142
ACAGCTCT | -0.296
AAAAAGTA | 0.266
CCCTTTAC | -0.0491
AATCTGCG | 0.23
AACAGTAA | -0.028
ACTAGAGT | -0.0359
ATCGAGGC | -0.0857
GTGGGCCA | -0.153
CATCGTCA | -0.0259
GTTCAGCA | 0.0491
AGGAAAAG | 0.0223
GTCTGTCA | -0.0863
CCCTCTGA | -0.208
AATGGATA | 0.0985
AACTTTCG | -0.0803

Sequence | PBM E-score
ACGCCCGC | 0.105
CAACGATG | -0.131
GATGACAC | 0.0557
ACAGAATC | 0.0851
AGATGTAT | 0.241
CACCTGCC | -0.127
GACTGAAC | -0.185
CGTCAGGA | -0.00623
GATGTACA | -0.207
GGTCCAAC | -0.104
AATCGCGG | 0.0114
ACCTGGTG | 0.0891
AAAGGAGT | 0.0408
ACACGTGA | -0.063
AAACGAGG | -0.0367
ACCGCTAG | -0.0856
AACTTGTC | -0.0731
CAGTAGCG | -0.0886
TAACTCGA | -0.0164
CTAGGTAA | -0.326
ACTGCGAC | 0.0788
TATATTAA | 0.236
